In all, about 150,000 compounds went through this assay and about 540 (0.36%) showed an effect of 50% or more. The list shows a part of the results.
test system: Plasmodium falciparum; assay: Primary screen in NF54 nanoGlo assay, in single point, at 2uM, 72h; a lower Z score goes with more inhibition; format: functional, Erythrocyte; settings: timepoint 72 hour

SMILES | % Inhibition [%] | Z score
CS(=O)(=O)c1ccnc(NC(=O)N2C[C@@H](C3CC3)C[C@H]2C2CC2)c1 | -6 | 1.11
C[C@H](Oc1ccc(S(C)(=O)=O)cc1)c1nc2ccccc2o1 | -2 | 0.26
COc1ccc(C(=O)NC(C)(C)CC(C)(C)C)cc1 | -9 | 1.78
O=C(O)CC1(NCc2cc3c(cc2Br)OCO3)CCOCC1 | 2 | -0.31
COCCN(CC(=O)N(Cc1cccn1Cc1ccc(Br)cc1)C1CCCCC1)C(=O)c1ccc(OC)cc1OC | -10 | 1.14
CC[C@H](NC(=O)CNS(C)(=O)=O)c1nccs1 | -14 | 2
Cc1nn(C)cc1-c1nn(S(=O)(=O)c2ccccc2)c(-c2cn(C)nc2C)c1Cl | 30 | -3.37
CC1=NN(c2ccc(Cl)cc2)C(=O)C1C(c1ccccc1Cl)c1c(C)nn(-c2ccc(Cl)cc2)c1O (centres undefined) | -11 | 1.71
Cn1c(C(F)(F)F)nn(CC(=O)NCc2ccco2)c1=O | 12 | -1.37
O=C(Nc1ccc(OCc2ccccc2)cc1)c1ccc2ccccc2c1 | -3 | 0.41
Cc1cnn(-c2cc(C(=O)O)cc(S(=O)(=O)N3CCCCCC3)c2)c1 | 16 | -2.1
O=C1CNC(=O)N1[C@H]1CCN(S(=O)(=O)Cc2ccccc2F)C1 | -13 | 2.38
COc1cc(-c2ncc(C(=O)N3CCOCC3)c(N3CCN(c4ccccc4F)CC3)n2)cc(OC)c1OC | -27 | 2.37
Cn1cc(S(=O)(=O)NCc2nccnc2-c2cccs2)cn1 | -8 | 1.57
Cc1cc(Oc2cc(N3CCCC3)ncn2)ccc1Cl | -6 | 0.96
COc1ccc(C2(NCc3cc(OC)c(OCC(N)=O)c(OC)c3)CCCCCC2)cc1 | -4 | 0.78
CC(C)[C@H](NC(=O)N1CCCCCCC1)c1cccnc1 | -11 | 1.13
CCN(Cc1nnc(-c2ccccc2)o1)C1CCCCC1 | -4 | 0.48
O=S(=O)(Nc1nc2ccccc2nc1Nc1ccc2c(c1)OCO2)c1ccc(Br)cc1 | -4 | 0.48
CCCNC(=O)c1ccc2c(c1)nc1n2CC[C@H](C)C1 | -24 | 3.33
Cc1ccc(F)cc1CN1CCC2(CC1)C[C@@H]2C(=O)O | -6 | 0.56
CCN(Cc1ccc2[nH]ccc2c1)Cc1nc(C)no1 | -10 | 1.23
CC(C)(C)n1nnc(CNc2cnccc2-n2cccn2)n1 | -2 | 0.29
CCc1nc(N2CCC[C@H](CNC(=O)c3ccoc3)C2)no1 | -1 | 0.26
COc1ccc(CN(CCC(C)C)C[C@H](O)COCc2ccccc2)cc1 | 6 | -0.87
CNC(=O)[C@H]1CC(=O)N(c2cccc(NC(=O)Nc3c(C)cccc3C)c2)C1 | -8 | 1.15

SMILES | % Inhibition [%] | Z score
CC1(C)Cc2ccccc2CN1C(=O)c1cn(C[C@H]2CCCNC2)nn1 | -5 | 0.98
COc1ccc(C(=O)Nc2nc3ccccc3n2C2CCCC2)nn1 | 7 | -0.97
Cc1cc(C)n(CC(=O)N2CCN(Cc3ccccc3)CC[C@@H]2C)n1 | -10 | 1.12
Cc1ccc(F)c(-n2nc(C(=O)N3CC[C@]4(CNC(=O)C4)C3)c3c2CCC3)c1 | -6 | 0.68
Cc1cc(F)ccc1[C@H]1C(=O)NCCN1C(=O)c1ccn2ccnc2c1 | 2 | -0.23
O=C(NCCc1nccn1Cc1ccccc1)c1ccc2c(c1)C(=O)N(Cc1ccccc1)C2=O | 2 | -0.33
CC/C(=N\NC(=O)OC(C)(C)C)NC1CCCC1 | -14 | 1.54
C[C@@]1(C(=O)NCc2ccccc2)Cn2cnc(C(=O)NCCc3ccccc3)c2C(=O)N1C1CC1 | -9 | 1.49
C[C@]1(/[N+]([O-])=C/c2ccccc2C(F)(F)F)CCCCC1=O | -13 | 1.47
O=c1cc[nH]c(CCc2ccccc2)n1 | -10 | 1.34
COc1ccc(NC(=O)c2c(Nc3ccc(OC(F)F)cc3)sc(C(=O)Nc3ccc4c(c3)OCO4)c2N)cc1Cl | -3 | 0.3
N#CC1CCN(C(=O)c2ccccc2Cc2ccc(Cl)cc2)CC1 | 16 | -2.08
C[C@H](N)c1cc(C(C)(C)C)c(O)c(C(C)(C)C)c1 | 2 | -0.15
Cc1ccc(C(=O)CN(c2nc3nc(C)cc(C)n3n2)S(=O)(=O)c2ccc(C)cc2)cc1 | -4 | 0.63
COc1ncccc1CNC[C@H]1Cn2c(-c3ccc(Cl)cc3)cnc2CO1 | 8 | -0.88
CC1CN(c2ccc(NC(=O)NCC3CC3)cc2)CC(C)O1 (centres undefined) | -1 | 0.11
Cc1cc(Cl)cc2c1NC(=O)C21NC(CC(N)=O)[C@H]2C(=O)N(Cc3ccc(F)cc3)C(=O)[C@H]21 (some centres undefined) | -6 | 0.89
O=C(Nc1cc(F)cc(NCC(F)(F)F)c1)c1cc(C2CC2)no1 | 7 | -1.18
CCN(CC)c1ccccc1COC(=O)C1CCOCC1 | -10 | 0.84
Cc1cc(C)c(C(=O)N2CCC[C@H](c3nccn3Cc3ccccc3)C2)cn1 | 12 | -1.39
Cc1onc(N)c1S(=O)(=O)NCC1(n2cccn2)CC1 | -13 | 1.66
CN1C(=O)CC[C@@]12CCN(S(=O)(=O)c1ccc(F)cc1)C2 | -2 | 0.31
CN(CC(=O)NC[C@H]1CCCO1)Cc1cccc(Cl)c1Cl | 1 | -0.14
C#CCN(C)S(=O)(=O)c1ccc(OC)cc1 | -9 | 1.12
CC[C@@H](CN(C)Cc1ccccc1)NC(=O)C1CCN(c2nc3cccnc3n(CC)c2=O)CC1 | 32 | -2.56
CC(C)c1nnc(CN[C@H](C)c2ccc(F)cc2Cl)o1 | -10 | 1.29
